# Reference: publication PMC12136788
# This is one part of the list.
# B1: chr1:163112212:163112213:-_ENSG00000143248_ENST00000313961|hu_hu|hu_hu_hu_mus_False|18_108 (ssRNA)
# RNA: GGGAGUUCUACAGUCCGACGAUCUUUAUUUAUCCAGAAGAGUGAGUUACAUACUAGGCAAAGUAUUGGAUACAAUAAUCAGGAAACAAACACUAUUGGUCCAGAAUUUAAAACUUUUGGGAUAAAUUGCUGGCACAGGACUUACAACAGAGGAUUGAGCAUCA
# B2: 108361874_108364346_2953_CDS_ENSMUSG00000034557_ENSMUST00000106657|mouse|control|control (ssRNA)
# RNA: GGGAGUUCUACAGUCCGACGAUCCUCUGUUGGAAGAGGACUGGUGGCUACAGGCUUGACUGGGUCAUGUGACACAGCCAGAGUUCCUGCAGAGGAAGUUCCAUUCAUUGUUAAUUUGGCUGCAUCAGCAACUUCUCCAUUAGGCAACAGAGGAUUGAGCAUCA
# B3: chr4:141302222:141302223:+_ENSG00000153130_ENST00000394201|hu_hu|FALSE|FALSE (ssRNA)
# RNA: GGGAGUUCUACAGUCCGACGAUCUCUUUUGCUUUUUGUGUCAGUUGUUUGAAAAACACUAGAAGCUGACAUGAGAUUUUCUAUAUAUUGUCCAAGAACUUGGUUUUCUGAUUUUAGCUUCAGAUUUUCUUCCUUAACUGCAUCCAACAGAGGAUUGAGCAUCA
# B4: chr16:94664741:94664742:+_ENSMUSG00000040785_ENSMUST00000117648|mus_hu|mus_mus_mus_hu_False|68_68 (ssRNA)
# RNA: GGGAGUUCUACAGUCCGACGAUCUGGUACUGAUCUUGGUAGCUGAUAUUCAGGAGAAAGGCUGGCCAAAGGUGUGUAUAUGCUGGUGUACUGGGGCAAACCUGGUAACACGUUUAUGUAUGCUGGCGGUGUCUGGGUGAUAUCCAACAGAGGAUUGAGCAUCA
# B5: chr2:179979976:179979977:-_ENSG00000187231_ENST00000335289|hu_mus|FALSE|FALSE (ssRNA)
# RNA: GGGAGUUCUACAGUCCGACGAUCCUGCAGCAGCUGUCUGCCAUAGUCGUAAGUACUCUGGGCAACAUCGACAAAUUUUCUGUGUUUUUCCAGUAAAACCUUUGUUUCCUGAGCAUCGUCACCCAGCCUGAUAUGGGUCUUCAGCAACAGAGGAUUGAGCAUCA
# B6: chr4:17845017:17845018:+_ENSG00000109805_ENST00000514176|hu_mus|hu_hu_hu_mus_False|38_38 (ssRNA)
# RNA: GGGAGUUCUACAGUCCGACGAUCGCUCUCUUAACUUGUAUCUUCAUUAAGGAACUCUGCAAGGUUAAGUUUACUUUUCUGUAGCGCAGCUGUUUUGCUCGUCUUGGGUAAUCUCAUCUUCAUUUCUGAUGGUGGUUCAUGAUCCAACAGAGGAUUGAGCAUCA
# B7: chr17:65740002:65740003:+_ENSG00000130935_ENST00000581375|hu_hu|hu_hu_hu_mus_False|68_108 (ssRNA)
# RNA: GGGAGUUCUACAGUCCGACGAUCAACCCGUUCUUGCUCCCUGGACGAACAGGAAGAUUCAUAUUAACUUUAUAAAAUAUCCAUCAAGUUAGGUGUGGUGGCCACACCUUUACUCCCAGCACUUUGGGAGGUGGAUCUCUGAGUCAACAGAGGAUUGAGCAUCA
# B8: chr3:169711627:169711628:+_ENSG00000008952_ENST00000337002|hu_mus|FALSE|FALSE (ssRNA)
# RNA: GGGAGUUCUACAGUCCGACGAUCCUAAAAACAUACCUUACAUGGUUUUUGUUUUACAAAUUUCAGUGUUGAGAAAUGUCUAAAUAAUAAGUAACAAUUAAAAUAAAAUGUUUUAUUUGUAAAUUAUGUACAGAAUACAUCUUACAACAGAGGAUUGAGCAUCA
# B9: chr1:150549822:150549823:-_ENSG00000143384_ENST00000369026|hu_mus|motif|central (ssRNA)
# RNA: GGGAGUUCUACAGUCCGACGAUCUAAAUACACAUGUUUUCACAGAUGCAUGUAGUUUGGUGGCUGGAGCUUUAAGAGUCCCCGGUUGCACUCACAAGGCUAUCUUAUUAGAUAUGCCAGACCAGCCCCUACUCCAGCAACACCCAACAGAGGAUUGAGCAUCA
# B10: 37063981_37065326_3669_CDS_ENSMUSG00000040565_ENSMUST00000099494|mouse|control|control (ssRNA)
# RNA: GGGAGUUCUACAGUCCGACGAUCUGUUUCCAUGGUAGCUAUUUUACUCAUGACACCUAUGCAACGAGCCGCCAUGUGCCUCACUGCAGUGCUGGGGUACUGAAGGCACAUAUAAAGAUGAGGCAAGUGCUGUACCAGCAAGGGCAACAGAGGAUUGAGCAUCA
# B11: chr7:149068622:149068623:-_ENSMUSG00000025139_ENSMUST00000001950|mus_hu|mus_mus_mus_hu_False|1_28 (ssRNA)
# RNA: GGGAGUUCUACAGUCCGACGAUCGUGAGGCCUCUGAGUGUGGCUUGUGGUCUGUCCUGGGUUAGAGUUGUUAAUAUCACGGAACAUACCAUCUAGAACGUUCCAGUCUGCCUGACUACCUUCAUUCCCAAUGGAGAAUCUGCUCAACAGAGGAUUGAGCAUCA
# B12: chr10:75008345:75008346:-_ENSG00000213551_ENST00000372950|hu_hu|FALSE|FALSE (ssRNA)
# RNA: GGGAGUUCUACAGUCCGACGAUCCUAUAUCUUAGUCACACACCAGAGUUAAGCCAUCUGUCUUUGCUCAUUUUUCCCUCUAUGGACAACAUAAUAUGUUGGGAAGGGCUUUCCAGGAGGGCAUAACCGGGAGAUGAAUCUUACCAACAGAGGAUUGAGCAUCA
# B13: chr11:86510823:86510824:-_ENSMUSG00000047126_ENSMUST00000103186|mus_hu|FALSE|FALSE (ssRNA)
# RNA: GGGAGUUCUACAGUCCGACGAUCAAUGGGUUGUGUCUCUGUAGCUUGUUCUUCUUCUUUUCUCAGUGAUUCUGAAGCAUCUAAUUUAUCCACCUUUGUCAAGUACUCCUUCAUGACCUGGAUGAAAUAGGGCAUGGCAAAAUCCAACAGAGGAUUGAGCAUCA
# B14: chrX:12193597:12193598:+_ENSMUSG00000031007_ENSMUST00000033313|mus_hu|FALSE|FALSE (ssRNA)
# RNA: GGGAGUUCUACAGUCCGACGAUCAUAUACUCCACAAGGCUAGUUUCUUCUUAGAUCAAUGUAGUAUUUUUAGUAUCCAUAUUAGCCCAUGUAGGUCAACAAACUUGCAGAAGAGGGUUAAAAAACAGCUGUCCUCUGUUACUCCAACAGAGGAUUGAGCAUCA
# B15: chr14:57521723:57521724:+_ENSMUSG00000021945_ENSMUST00000022511|mus_mus|motif|central (ssRNA)
# RNA: GGGAGUUCUACAGUCCGACGAUCUACAGGUUCAAUAAAAACAACGUCAUCAUCAUCUUCUACUGAUGAGUUCUGAAACUUACGGGAUCUAGACACUAAAGGAUUAGGUGGGCCACUAAAUGAAUUUCCUACGUUCGUGAGACUCAACAGAGGAUUGAGCAUCA
# B16: chr3:95733387:95733388:+_ENSMUSG00000015749_ENSMUST00000165307|mus_mus|motif|central (ssRNA)
# RNA: GGGAGUUCUACAGUCCGACGAUCCACACGGGUGUGGGAGAGAAAGAAAAGAAUAGCAAAUGGAGUCCGACGACUUGGGACGGACUCGGCUGCCCCCACCUCCGAGUCCACACACCCGCGCGCGCACACUCGGGCACGCACACACAACAGAGGAUUGAGCAUCA
# B17: chr8:13935169:13935170:+_ENSMUSG00000038365_ENSMUST00000043520|mus_hu|FALSE|FALSE (ssRNA)
# RNA: GGGAGUUCUACAGUCCGACGAUCUGGGUAAUGUUUCUGAAGUGCAAAGUACAUCAACUUCCAUUCAAUAUGACCUUUUUCUGAAAGGAUCAAAUGUCUACAAAACUGCUUUUCAGCAAAAUGGUACUGACAAAGCUUCUUCCACAACAGAGGAUUGAGCAUCA
# B18: chr8:95500983:95500984:-_ENSG00000164944_ENST00000437199|hu_hu|hu_hu_hu_mus_True|8_18 (ssRNA)
# RNA: GGGAGUUCUACAGUCCGACGAUCAGAACACAUCUAUCGAGUAAAGGACCGUACAUGACGGCCUCUACCACUGCCUCCACUAACAAACUUUCCUCUCGAGCCUCCACUGCCGCUAUUUUGCACUAGCCCAGGAAGGUCCAGGCCCAACAGAGGAUUGAGCAUCA
# B19: chr19:54062153:54062154:+_ENSMUSG00000024976_ENSMUST00000025932|mus_mus|motif|central (ssRNA)
# RNA: GGGAGUUCUACAGUCCGACGAUCUUGGCAGACGGUACUUUGGGGUCUUUCUCUUUAGAGUCUUUUUCUUUUCCUAAACGGCGGCUCAUGGUGACUCAAGCUUCACUCAAACACUACAUGAACUCCUCCUCCUCGCCAGCAAUCCAACAGAGGAUUGAGCAUCA
# B20: chr3:148802587:148802588:-_ENSG00000071794_ENST00000310053|hu_mus|hu_hu_hu_mus_False|28_78 (ssRNA)
# RNA: GGGAGUUCUACAGUCCGACGAUCUCCAACAACUUGUCCUCUCAUAGUUCCAAAUAAAACGGAAUCUUGCUCUUCAUCACUCGUUAGGAAGUCAUCUGGAGGAAUAACAUCUUGGAAUUCAAAAUGUGGCAAGAAAGUUGAGUACAACAGAGGAUUGAGCAUCA
# B21: 14087887_14088007_2097_3pUTR_ENSG00000147862_ENST00000380959|human|control|control (ssRNA)
# RNA: GGGAGUUCUACAGUCCGACGAUCAGAAAGUCAGUUAAAAUAUAUUGUCAUAGAGACAGAACAUCUAUUUCCCAGCGGACUUCAUGUAACAAAGGCUACGUUGCAGGGGCUGCGAUCUACCAUCAGUGAAAUAUCAUCGACCCUCAACAGAGGAUUGAGCAUCA
# B22: chr12:42180722:42180723:-_ENSMUSG00000036295_ENSMUST00000043884|mus_mus|motif|central (ssRNA)
# RNA: GGGAGUUCUACAGUCCGACGAUCCUGUAGGAGCAGAAUCUGUGUGUCGGCAGGCAAUCUGGCUGGGAAGUUUAAAAGCCCGGAAUCAUUACAGUCCACUGUCGAUGCUUCCAUAUAGAUGGAUCUCGGGGUAAACCAAGGCCUCAACAGAGGAUUGAGCAUCA
# Molecular target: T1, UNK ZnF1-3 (human, UniProt Q9C0B0 31-174)
# T1 sequence: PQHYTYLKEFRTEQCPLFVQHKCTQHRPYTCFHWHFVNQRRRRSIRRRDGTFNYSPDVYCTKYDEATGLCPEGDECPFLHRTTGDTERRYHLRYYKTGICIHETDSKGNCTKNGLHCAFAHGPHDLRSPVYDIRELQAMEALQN
# Assay: nsRBNS (natural sequence RNA bind-n-seq); RBNS binding buffer (assumed for nsRBNS): 25 mM Tris pH 7.5, 150 mM KCl, 3 mM MgCl2, 0.01% Triton X-100, 500 ug/ml BSA, 20 U/ml SUPERase-In, 4 C; UNK is unkempt and MSI1 is Musashi-1; names of the RNAs are library labels; protein concentration not given here; high values mean tight binding
row,Binder,binding signal [enrichment R]
1,B1,1.75
2,B2,0.836
3,B3,0.297
4,B4,0.975
5,B5,0.914
6,B6,0.344
7,B7,0.844
8,B8,0.644
9,B9,0.626
10,B10,1.02
11,B11,0.684
12,B12,1.63
13,B13,0.718
14,B14,0.956
15,B15,1.02
16,B16,0.788
17,B17,0.661
18,B18,1.13
19,B19,0.76
20,B20,1.7
21,B21,0.766
22,B22,1.19
